# Several values for one entry are separate records, joined by “and”; a condition that tells them apart may be missing. Equal entries are not always repeated. The campaign covered roughly 340,000 compounds. About 12,000 (3.5%) were called active. The shares of active, inactive and inconclusive entries below differ from those in the screen. The call rests on the fitted dose curve; in most records, active means well fitted inhibition curve with a large enough effect; inconclusive means small, poorly fitted or top-dose-only effect, or another doubt; inactive means no such curve, though single readings can be large or run the other way. A potency beside an inconclusive call is a rough fit, not a confirmed value.
# Test: qHTS Assay for Inhibitors of Hepatitis C Virus (HCV)
# Conditions: Huh7.5.1 HCVcc-Cre (HCVcc is cell-culture hepatitis C virus) infection, luciferase reporter, 44 h; activity change, negative = inhibition: at 41.8 µM (top of the series) unless noted
# Outline: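 Reporter virus HCVcc-Cre (~0.5 moi) infects cells exposed to compound; seeding density 1,000 cells/well with 4 h settling beforehand. Luminescence, 15 sec read, taken 44 h post-infection following a 15 min RT substrate incubation.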
# On the % scale 0 is the no-effect control and ±100 the full control effect; potency means the concentration at half of the fitted maximal effect; tags describe the fitted curve by direction and shape.
SMILES,Potency,"activity change, negative = inhibition"
CCOC(=O)N1CCN(C(=O)CS(=O)(=O)c2cn(Cc3ccccc3Cl)c3ccccc23)CC1,"inconclusive: 10 µM [inhibitor, partial curve]",
CN(C)c1cccc2c1c(NC(=O)c1ccc(Cl)cc1)nn2C,"inconclusive: 31.6 µM [inhibitor, single point]",
O=C1NC(=S)N/C1=C/c1ccc(-c2c(Br)cc([N+](=O)[O-])cc2Br)o1,active: 8.91 µM,
COc1ccc2c(C(=O)CN3CCSCC3)c[nH]c2c1,,inactive: 8.52%
CCOC(=O)[C@H]1[C@H]2COc3ccc(Cl)cc3[C@@H]2N2C(=O)c3cc(F)c(F)cc3NC(=O)[C@@]12C,"inconclusive: 25.1 µM [inhibitor, partial curve]",
Cc1nn(CC(=O)N2CCCCC2)c(=O)c2nn(-c3ccccc3)c(C)c12,,inactive: 9.96%
COc1ccc2nc(NC(=O)CCc3cc(OC)c(OC)c(OC)c3)sc2c1,"inconclusive: 5.62 µM [inhibitor, partial curve]",
CC(C)C(=O)Nc1ccccc1C(=O)OCC(=O)c1ccc2c(c1)OCCO2,"inconclusive: 8.91 µM [inhibitor, partial curve, poor fit]",
O=C(Nc1cc(S(=O)(=O)N2CCOCC2)ccc1Cl)c1cc([N+](=O)[O-])ccc1Cl,,inactive: -20.1%
CC(=O)N1c2ccc(S(=O)(=O)N3CCC(C(=O)Nc4cccc(F)c4)CC3)cc2CC1C (centres undefined),"inconclusive: 22.4 µM [inhibitor, single point]",
CN1CCN(/N=C/c2ccc(N(C)c3ccccc3)cc2)CC1,,inactive: 10.6%
O=C(CSc1nnc(-c2cccnc2)n1Cc1ccco1)c1ccc2ccccc2c1,"inconclusive: 5.62 µM [inhibitor, single point]",
C=CCSc1nnc(-c2cnn(-c3ccccc3)c2-n2cccc2)n1C,,inactive: 9.27%
O=C(NC(=S)Nc1ccccc1N1CCCCC1)c1cccs1,"inconclusive: 14.1 µM [inhibitor, single point]",
Cc1nc2cc([N+](=O)[O-])ccc2c(=O)n1-c1ccc(Br)cc1,,inactive: -7.72%
CN(C)CCCNS(=O)(=O)c1ccc(-n2nnc3ccccc32)c([N+](=O)[O-])c1,active: 17.8 µM,
Cc1ccc(NC(=O)c2ccc(Cl)c(S(=O)(=O)N3CCCCC3)c2)nc1,"inconclusive: 14.1 µM [inhibitor, partial curve]",
COc1ccc(OC)c(C2C3=C(N=C4SCC(=O)N42)c2ccccc2CC3)c1 (centres undefined),"inconclusive: 31.6 µM [inhibitor, single point]",
CC(C)c1ccc(N(CC(=O)NN=C2CCN(C)CC2)S(=O)(=O)c2ccccc2)cc1,"inconclusive: 31.6 µM [inhibitor, single point]",
O=C(Nc1cccc(Cl)c1)c1cccc(Oc2ccc([N+](=O)[O-])cc2Cl)c1,"inconclusive: 8.91 µM [inhibitor, partial curve]",
COc1ccc(Cn2c(CCC(=O)Nc3ccccc3)nc3cccnc32)cc1,"inconclusive: 10 µM [inhibitor, partial curve]",
Clc1cccc(OCCCN2CCCC2)c1Cl,,inconclusive: -30.1% [inhibitor]
Cc1cccc(NC(=O)CN2CCN(C(=O)C3CCN(C(=O)/C=C/c4ccccc4)CC3)CC2)c1C,"inconclusive: 22.4 µM [inhibitor, single point]",

SMILES,Potency,"activity change, negative = inhibition"
CCCCOC(=O)c1ccc(NC(=O)c2ccoc2C)cc1,"inconclusive: 2 µM [inhibitor, full curve]",
CCOC(=O)CNC(=O)CSc1nnc(-c2cccc(C)c2)n1-c1ccc(OC)cc1,,inactive: 6.06%
CCOc1cc(/C=N/O)ccc1OCc1ccccc1F,"inconclusive: 11.2 µM [inhibitor, partial curve]",
O=C1CCOc2cc(OCc3ccccc3)ccc21,,inactive: 13.1%
CC1CCN(C(=O)c2[nH]cnc2C(=O)NC2CCN(C(=O)OC(C)(C)C)CC2)CC1,"inconclusive: 3.16 µM [inhibitor, partial curve, poor fit]",
CCN=c1sc2ccccc2n1CC(O)COc1ccccc1 (centres undefined),active: 12.6 µM,
Cc1ccc(-c2nc(N/N=C/c3ccccc3[N+](=O)[O-])c3ccccc3n2)cc1,"inconclusive: 20 µM [inhibitor, partial curve, poor fit]",
CN(C)S(=O)(=O)c1cccc(COC(=O)c2ccc3c(c2)OCO3)c1,"inconclusive: 10 µM [inhibitor, single point]",
COc1ccc(OC)c(C(=O)NC(CC(N)=O)c2ccc(N3CCN(c4ccc(F)cc4)CC3)c([N+](=O)[O-])c2)c1 (centres undefined),,inactive: -28.4%
COc1ccc(/C=C2\C(=O)NC(=S)N2C(=O)c2ccc(F)cc2)cc1,,inactive: 14.1%
Oc1ccccc1CNc1ccc(OC(F)(F)F)cc1,"inconclusive: 10 µM [inhibitor, partial curve]",
Cc1ccc(OCC(=O)N2CCN(S(=O)(=O)c3ccc(Cl)s3)CC2)cc1C,"inconclusive: 31.6 µM [inhibitor, single point]",
N=c1c(C(=O)NCc2ccco2)cc2c(=O)n3ccccc3nc2n1Cc1ccc(Cl)cc1,active: 5.01 µM,
O=C(CCN1C(=O)C2C3C=CC(C4CC34)C2C1=O)Oc1cccc2cccnc12 (centres undefined),"inconclusive: 3.55 µM [inhibitor, full curve, poor fit]",
Cc1nc2ccc(NC(=O)c3cccc(S(=O)(=O)N4CCOCC4)c3)cc2s1,"inconclusive: 3.55 µM [inhibitor, full curve]",
CCCCn1ccc(=O)c2c(C(F)(F)F)nccc21,"inconclusive: 31.6 µM [inhibitor, single point]",
COc1cccc(CC2(CO)CCN(Cc3cnc(N4CCOCC4)s3)CC2)c1,"inconclusive: 11.2 µM [inhibitor, partial curve]",
CN(C)CCNC(=O)c1cccc2nc3c(ccc4ccccc43)nc12,active: 7.94 µM,
O=S(=O)(c1ccc(F)cc1)N1CC2CCCN2c2ccc(C(F)(F)F)cc21 (centres undefined),"inconclusive: 10 µM [inhibitor, partial curve]",
Cc1cc(C)n(-c2cccc(CN3CCC(CO)(Cc4ccccc4)CC3)c2)n1,"inconclusive: 6.31 µM [inhibitor, partial curve]",
CCN1/C(=C/c2cccc[n+]2C)Sc2ccc(OC)cc21,active: 3.55 µM,
COc1cc(OC)c(C(=O)Nc2cccnc2)cc1OC,,inactive: -14.9%
C[C@H]1CCC(=O)N([C@H](CN=[N+]=[N-])Cc2ccccc2)CC1,"inconclusive: 4.47 µM [inhibitor, full curve, poor fit]",

SMILES,Potency,"activity change, negative = inhibition"
CCOc1ccc(CCNC(=O)c2cccc(C#N)c2)cc1OCC,"inconclusive: 10 µM [inhibitor, partial curve]",
CCCOCCOC(=O)c1[nH]c2c(c1C)C(=O)CC(c1cc(OC)ccc1OC)C2 (centres undefined),"inconclusive: 4.47 µM [inhibitor, partial curve] and inconclusive: 316 nM [inhibitor, full curve]",
Cc1cnnn1-c1cccc([N+](=O)[O-])c1,,inactive: 10.3%
Cc1ccc(C(=O)N2CCN=C2SCc2ccc([N+](=O)[O-])cc2)cc1C,,inactive: 20%
Cc1ccc(N2N=C(c3ccc(F)cc3)CC2c2ccco2)cc1 (centres undefined),"inconclusive: 31.6 µM [inhibitor, single point]",
CC(C)C(=O)Nc1cccc(S(=O)(=O)c2cccc(NC(=O)C(C)C)c2)c1,"inconclusive: 11.2 µM [inhibitor, partial curve]",
O=C(Nc1ccc(Nc2ccccc2)cc1)c1cccc(F)c1,"inconclusive: 22.4 µM [inhibitor, single point]",
N#Cc1c(NC(=O)CSc2ncnc3c2cnn3-c2ccccc2Cl)sc2c1CCCC2,"inconclusive: 31.6 µM [inhibitor, single point]",
O=C(NCc1ccccc1)c1cc2nc(C3CC3)cc(C(F)(F)F)n2n1,,inactive: -26.2%
COc1ccc(C(=O)Nc2cc(Cl)ccc2N2CCOCC2)cc1S(=O)(=O)N1CCOCC1,"inconclusive: 31.6 µM [inhibitor, single point]",
CC(C)(C)c1ccc(-n2ncc3c2CCCC3NC(=O)CN2CCCC2=O)cc1 (centres undefined),active: 10 µM,
CCN(C(=O)Cn1nc(C)c([N+](=O)[O-])c1C)C1CCS(=O)(=O)C1 (centres undefined),,inactive: 3.6%
COc1ccc(-c2cc(C(=O)N3CCCC(C(F)(F)F)C3)c3ccccc3n2)cc1 (centres undefined),"inconclusive: 14.1 µM [inhibitor, single point]",
CCn1c(COc2ccc(OC)cc2)nnc1SCC(=O)Nc1cc(OC)ccc1OC,active: 1.26 µM,
COC(=O)CSC1=C(C#N)C(c2ccc(C(C)C)cc2)CC(=O)N1 (centres undefined),"inconclusive: 11.2 µM [inhibitor, partial curve]",
CCOC(=O)c1cc(C#N)c(N2CCCCC2)nc1-c1ccccc1,"inconclusive: 8.91 µM [inhibitor, partial curve]",
COc1ccccc1NCC(O)COc1ccc(C(C)(C)C)cc1 (centres undefined),"inconclusive: 31.6 µM [inhibitor, single point]",
CCN(CC)CCN=Cc1c(O)n(Cc2ccco2)c(=O)[nH]c1=O,,inactive: 23.6%
CCOc1ccccc1N(C)C(=O)Cn1ncc2c([nH]c3ccccc32)c1=O,"inconclusive: 3.55 µM [inhibitor, single point]",
Fc1ccc(NC(=S)NNc2ncc(C(F)(F)F)cc2Cl)c(F)c1,active: 22.4 µM,
c1ccc(-c2nc(NCC3CCCO3)c3oc4ccccc4c3n2)cc1 (centres undefined),"inconclusive: 31.6 µM [inhibitor, single point]",
Cn1nccc1C(=O)N1CCC2(CC1)OCCO2,,inactive: 5.74%
CC(=NCCc1ccccc1)c1c(O)[nH]c(=O)[nH]c1=O,,inactive: 2.49%
